Test results as given in a compilation of properties of binary mixtures (doi:10.1016/j.fluid.2020.112621).
Some of these densities may be calculated back from excess volumes.

Assay: xn = mol fraction of the nth substance listed
Settings: 101 kPa

CCC(=O)O.CCC(=O)[O-].CC[NH+](CC)CCO + CCCC[n+]1ccn(C)c1.COP(=O)([O-])OC
mass density [kg/m3]
Settings | x1 = 0.08 | x1 = 0.1549 | x1 = 0.2364 | x1 = 0.3281 | x1 = 0.4183 | x1 = 0.4953 | x1 = 0.6252 | x1 = 0.7416 | x1 = 0.8667 | x1 = 1
278.15 K | – | 1139.8 | 1125.4 | 1110.6 | 1098.4 | 1089.1 | 1076 | 1061 | 1047 | 1034
283.15 K | 1152.8 | 1135.8 | – | 1106.4 | 1094.1 | – | – | – | 1043 | 1030
288.15 K | 1149.2 | 1132.1 | 1117.6 | 1102.5 | 1090.2 | 1080.8 | – | 1053 | 1039 | 1026
293.15 K | 1145.8 | 1128.3 | 1113.9 | – | 1086.1 | 1076.7 | 1064 | 1049 | – | 1022
298.15 K | 1142.4 | 1124.5 | 1110.2 | 1094.9 | 1082.1 | 1072.6 | 1060 | – | 1031 | –
303.15 K | – | 1120.8 | – | 1091.1 | – | 1068.6 | 1056 | 1041 | – | 1014
308.15 K | 1135.5 | 1117 | 1103.1 | 1087.1 | – | 1064.6 | 1052 | 1036 | – | 1010
313.15 K | 1132.4 | 1113.3 | 1099.3 | – | 1070.2 | – | 1048 | 1032 | 1018 | 1006
318.15 K | 1128.7 | 1109.7 | 1095.9 | 1079.5 | 1066.3 | 1056.5 | – | 1028 | 1014 | 1002
323.15 K | 1125.3 | 1106.1 | – | 1075.7 | 1062.4 | – | 1040 | 1024 | 1010 | 998
328.15 K | 1122 | 1102.5 | – | 1072 | 1058.5 | 1048.5 | 1035 | – | – | 994
333.15 K | 1118.6 | 1099.4 | 1085.1 | 1068.3 | 1054.6 | – | 1031 | 1016 | – | –
338.15 K | – | 1095.6 | – | 1064.8 | 1050.8 | 1040.6 | – | – | 997 | 986
343.15 K | 1112 | 1092.1 | 1078.1 | 1061.1 | 1047.1 | – | 1023 | 1008 | 993 | 982
348.15 K | 1108.7 | – | 1074.6 | 1057.4 | – | 1032.9 | – | 1003 | – | 978
353.15 K | 1105.4 | – | 1070.8 | 1053.7 | – | 1028.9 | 1015 | 999 | 985 | 973
358.15 K | 1102.2 | 1081.8 | 1067.3 | 1050.1 | – | – | – | 995 | 980 | 969
363.15 K | 1098.9 | 1078.5 | 1063.8 | 1046.4 | 1031.7 | 1020.9 | 1007 | – | 976 | –
368.15 K | – | – | 1060.4 | 1042.6 | 1028.1 | 1016.9 | 1003 | – | 972 | 960
373.15 K | 1092.4 | 1071.7 | 1057.1 | 1039.1 | 1024 | 1013 | 999 | – | 967 | –

CCCC(=O)[O-].CC[NH+](CC)CCO + CCCC[n+]1ccn(C)c1.COP(=O)([O-])OC
mass density [kg/m3]
Settings | x1 = 0.1023 | x1 = 0.1989 | x1 = 0.3026 | x1 = 0.3985 | x1 = 0.498 | x1 = 0.6001 | x1 = 0.6613 | x1 = 0.8006 | x1 = 0.8788 | x1 = 1
278.15 K | 1152.5 | 1131.9 | 1110.6 | 1092 | 1074.6 | 1057.4 | 1048.2 | – | 1015.1 | –
283.15 K | 1148.7 | 1128.1 | 1106.8 | 1088 | 1070.4 | – | 1043.9 | 1022.7 | 1010.7 | –
288.15 K | – | 1124.5 | 1102.9 | 1084.1 | 1066.4 | 1049.1 | – | 1018.5 | 1006.5 | 987.7
293.15 K | 1141.9 | 1121.1 | 1099.3 | – | – | – | 1035.7 | 1014.3 | – | 983.4
298.15 K | 1138.5 | – | 1095.6 | 1076.5 | 1058.6 | 1040.9 | 1031.6 | 1010.1 | 998.1 | 979.2
303.15 K | 1135.1 | – | 1092 | 1072.7 | 1054.7 | – | 1027.5 | 1006 | 993.9 | 975
308.15 K | 1131.7 | 1110.6 | 1088.6 | – | 1050.8 | 1033.1 | 1023.4 | 1001.8 | 989.7 | 970.8
313.15 K | 1128 | 1107 | – | 1065.2 | – | 1029.2 | – | 997.7 | 985.5 | 966.5
318.15 K | – | 1103.5 | 1081.2 | 1061.5 | 1043.1 | – | 1015.4 | – | 981.3 | 962.3
323.15 K | 1121.3 | – | 1077.9 | 1057.8 | 1039.3 | 1021.4 | – | 989.4 | 977.2 | 958.1
328.15 K | 1117.9 | 1096.7 | 1074.4 | 1054.1 | 1035.5 | – | 1007.4 | 985.2 | 973 | 953.8
333.15 K | 1114.6 | 1093.3 | 1070.8 | 1050.6 | 1031.7 | 1013.4 | 1003.3 | 981.1 | 968.8 | 949.6
338.15 K | 1111.2 | 1090.1 | 1067.4 | 1046.8 | 1027.9 | 1009.5 | – | – | 964.6 | –
343.15 K | 1107.9 | – | 1063.6 | – | 1024.1 | – | 995.4 | 972.8 | 960.4 | 941
348.15 K | 1104.6 | 1083.2 | 1060.4 | 1039.6 | – | 1001.7 | 991.4 | 968.6 | 956.2 | 936.7
353.15 K | 1101.4 | 1079.8 | – | 1036.2 | 1016.6 | 997.7 | 987.5 | – | – | –
358.15 K | 1098.1 | 1076.5 | 1053.5 | – | 1012.9 | 993.8 | – | 960.2 | 947.7 | –
363.15 K | 1094.8 | 1073.4 | 1050.1 | 1029.1 | 1009.1 | 989.9 | 979.3 | 956 | 943.4 | 923.5
368.15 K | 1091.6 | 1069.8 | – | 1025.5 | 1005.6 | 986 | 975.3 | 951.8 | 939.1 | –
373.15 K | 1088.3 | 1066.5 | 1043.2 | 1021.9 | 1001.8 | 982.1 | 971.4 | 947.6 | 934.7 | 914.5

CCCCC(=O)[O-].CC[NH+](CC)CCO + CCCC[n+]1ccn(C)c1.COP(=O)([O-])OC
mass density [kg/m3]
Settings | x1 = 0.1018 | x1 = 0.1952 | x1 = 0.3029 | x1 = 0.4003 | x1 = 0.4973 | x1 = 0.5989 | x1 = 0.6984 | x1 = 0.7978 | x1 = 0.8868 | x1 = 1
278.15 K | 1150.1 | 1127.5 | 1104 | 1082 | 1064.3 | 1046.8 | – | 1014.2 | 999.9 | 981.4
283.15 K | 1146.3 | 1123.7 | 1100.1 | 1077.8 | – | 1042.6 | 1027.1 | 1010 | 995.6 | 977.1
288.15 K | – | 1120.2 | 1096.6 | 1073.8 | 1056.2 | 1038.6 | 1023 | 1005.9 | 991.4 | 973
293.15 K | – | 1116.7 | 1092.8 | 1069.9 | 1052.3 | 1034.6 | 1018.9 | 1001.8 | 987.3 | 968.9
298.15 K | 1136.2 | – | 1089.2 | 1066.1 | 1048.4 | – | 1014.9 | – | 983.2 | 964.7
303.15 K | 1132.7 | – | – | 1062.3 | 1044.5 | 1026.7 | 1010.9 | 993.7 | 979.1 | –
308.15 K | 1129.2 | – | 1082 | 1058.7 | 1040.7 | – | 1006.8 | 989.6 | 975 | 956.5
313.15 K | 1125.8 | 1103 | – | – | 1036.8 | – | 1002.8 | 985.6 | – | 952.3
318.15 K | 1122.6 | – | 1074.9 | – | 1033 | – | – | 981.5 | 966.8 | 948.2
323.15 K | 1119 | 1095.8 | 1071.6 | 1048.6 | 1029.2 | 1011 | 994.8 | – | 962.7 | 944.1
328.15 K | 1115.7 | 1092.7 | 1068.1 | 1045.3 | – | – | – | 973.4 | 958.6 | 939.9
333.15 K | – | 1089.3 | – | – | 1021.7 | 1003.3 | 986.8 | 969.3 | – | –
338.15 K | 1109 | – | 1061.1 | 1038.7 | – | – | 982.9 | 965.3 | 950.4 | 931.5
343.15 K | 1105.7 | 1082.5 | 1057.6 | – | – | 995.6 | – | 961.2 | 946.3 | 927.3
348.15 K | 1102.4 | 1078.9 | 1054.2 | 1031.7 | 1010.6 | – | 974.9 | 957.1 | 942.1 | 923.1
353.15 K | 1099.2 | 1075.6 | 1050.5 | 1028.2 | 1006.9 | – | 970.9 | 953 | 938 | 918.9
358.15 K | 1095.9 | 1072.2 | 1047.3 | 1024.6 | 1003.2 | 984 | 966.9 | 948.9 | – | –
363.15 K | – | 1068.9 | 1043.6 | 1021.1 | 999.6 | 980.1 | – | 944.8 | 929.6 | 910.2
368.15 K | 1089.4 | 1065.6 | 1040.5 | 1017.3 | 996.1 | 976.2 | 958.9 | 940.7 | 925.4 | 905.9
373.15 K | 1086.2 | 1062.3 | 1036.8 | – | 992.4 | 972.4 | 954.8 | 936.5 | 921.1 | –
